The results in this text go back to PubChem BioAssay AID504374 (National Center for Advancing Translational Sciences (NCATS), 2011).

Screen size: about 1,500 compounds; about 100 (6.7%) were called active. Another 7% or so got no clear call; they are omitted. Calls follow the shape of the dose curve; as a rule, active = well fitted inhibition curve with a large enough effect; inconclusive = small, poorly fitted or top-dose-only effect, or effect the other way; inactive = flat fitted curve, though single readings scatter. The list shows a part of the results.
% is scaled to controls: 0 for no effect and ±100 for the full control effect; potency is read from the fitted curve at half-maximal effect.

UniProt Q01196, sequence (Q01196 whole entry, looked up): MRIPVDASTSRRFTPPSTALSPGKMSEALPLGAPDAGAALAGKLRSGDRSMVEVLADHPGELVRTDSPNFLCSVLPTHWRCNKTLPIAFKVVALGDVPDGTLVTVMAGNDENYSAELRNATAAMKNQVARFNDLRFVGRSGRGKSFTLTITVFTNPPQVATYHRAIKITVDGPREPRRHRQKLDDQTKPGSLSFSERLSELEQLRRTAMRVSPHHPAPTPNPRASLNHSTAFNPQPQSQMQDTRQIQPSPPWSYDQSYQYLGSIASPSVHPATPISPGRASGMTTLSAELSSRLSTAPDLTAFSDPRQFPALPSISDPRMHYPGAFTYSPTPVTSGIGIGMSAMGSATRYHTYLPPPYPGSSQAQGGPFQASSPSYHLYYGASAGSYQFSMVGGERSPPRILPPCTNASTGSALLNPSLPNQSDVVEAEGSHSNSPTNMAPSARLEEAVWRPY
UniProt Q01196, sequence (Q13951 whole entry, looked up): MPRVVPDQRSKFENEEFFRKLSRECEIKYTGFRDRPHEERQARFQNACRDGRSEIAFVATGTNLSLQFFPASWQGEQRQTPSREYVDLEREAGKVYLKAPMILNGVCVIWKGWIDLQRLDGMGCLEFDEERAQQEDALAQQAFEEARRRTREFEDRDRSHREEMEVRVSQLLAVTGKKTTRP

For this experiment, the target named is Runt-related transcription factor 1 (Homo sapiens) + Core-binding factor subunit beta (Homo sapiens) (UniProt Q01196+Q13951). Kind of experiment: qHTS Assay for Compounds Blocking the Interaction Between CBF-beta and RUNX1 for the Treatment of Acute Myeloid Leukemia: Hit Validation. Also: nearly all actives have a fitted effect of over 60% in size. The note with it: AlphaScreen CBFb-His/RUNX1-biotin binding; series mostly up to 59.8 µM; activity, negative = inhibition: at the top concentration. The essentials:
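AlphaScreen proximity assay: His-tagged CBF-beta and biotinylated RUNX1 (30 nM each) preincubated 20 min, then compound 15 min, then nickel and streptavidin beads 90 min, all at room temperature; signal read at […]em 440 nm.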
(In qHTS, concentration-response curves come from the screen itself.)
For `COc1ccc(/C(C#N)=C/c2ccccn2)cc1`, the “activity, negative = inhibition” value is inactive: 9.94%.
For the compound `COc1cccc(NC(=O)C2CC(=O)N/C(=N/NC(=O)c3ccc(C)cc3)S2)c1` (stereo not given), the “activity, negative = inhibition” value was inactive: -5.66%.
As for `CCN1C(=O)[C@@H]2C(C(=O)c3cnccn3)=NN[C@@H]2C1=O`, the “activity, negative = inhibition” value was inactive: -8.33%.
In the case of `Cc1cccc(OCC(=O)N(Cc2ccc(N(C)C)cc2)C2CCS(=O)(=O)C2)c1` (stereo not given), the “activity, negative = inhibition” value was inactive: -10.5%.
As to `CCCCC1CCCC12NC(=O)NC2=O` (stereo not given), the “activity, negative = inhibition” value is inactive: 7.79%.
As for `Nc1ncccc1OCc1ccc(Cl)c(Cl)c1`, the “activity, negative = inhibition” value was inactive: -2.93%.
Same read-out and setting: under `Cn1nc2c3ccccc3n(Cc3ccc(F)cc3)c2nc1=S` stands inactive: -2.57%.
On to `COc1ccc(/C=N/OC(=O)c2ccc(Cl)cc2)c(Cl)c1OC`, for which the “activity, negative = inhibition” value is inactive: -5.17%.
As for `Fc1c(CSC(=S)N2CCOCC2)cccc1CSC(=S)N1CCOCC1`, the “activity, negative = inhibition” value was inactive: -1.55%.
For the compound `O=C1NCCc2c1[nH]c1ccccc21`, the “activity, negative = inhibition” value is inactive: 4.02%.
`CCOC(=O)c1ccc(N2CCCCC2)c(NS(=O)(=O)c2ccc(C)cc2)c1`: the “activity, negative = inhibition” value is inactive: 11.4%.
On the same count and under the same terms, with `COc1ccc(Oc2ccc(-c3ccn[nH]3)cc2)cc1` the figure was inactive: -8.28%; with `O=S(=O)(Nc1cccc(CCc2ccccn2)c1)c1ccc(Cl)cc1`, inactive: -2.91%; with `CN(C)C=Nc1ccc(Cl)c(Cl)c1`, inactive: -3.02%.
In the case of `O=C(N/N=C/c1ccc2c(c1)OCCO2)c1ccncc1`, the “activity, negative = inhibition” value is inactive: -1.01%.
As for `CCOC(=O)c1nnn2c1nc(N1CCCCC1)c1ccccc12`, the “activity, negative = inhibition” value was inactive: 4.9%.
`CCN(CC)CC(O)Cn1c(-c2cccc(Cl)c2)nc2cc(C)c(C)cc21` (stereo not given): the “activity, negative = inhibition” value was inactive: -10.2%.
Regarding `C=CCOc1c(CCC)cc(CCC)cc1C(N)=O`, the “activity, negative = inhibition” value was inactive: -2.85%.
Regarding `COCCCN1CCN(C2Cc3ccccc3Sc3ccc(Cl)cc32)CC1` (stereo not given), the Potency is active: 12.2 µM.
For `CCOC(=O)c1nn(-c2ccc([N+](=O)[O-])cc2)cc1O`, the “activity, negative = inhibition” value was inactive: -0.376%.
The same measure, in the same setting: with `COc1nc(C)ccc1-c1noc(-c2cccs2)n1` the figure was inactive: 1.23%.
Consider `COc1cc(/C=N/NC(=O)c2cncc(Br)c2)cc([N+](=O)[O-])c1O`, for which the Potency is active: 2.82 µM.
As for `C1=Cc2ccccc2Nc2ccccc21`, the “activity, negative = inhibition” value is inactive: -20.2%.
As to `N/C(Cc1nc2ccccc2s1)=N\O`, the “activity, negative = inhibition” value was inactive: -0.237%.
For `COc1cc(NC(=S)N(C)C)c(OC)cc1Cl`, the “activity, negative = inhibition” value is inactive: 1.08%.
On the same count and under the same terms, with `Cc1c(-c2ccccc2)[n+](=O)c(-c2ccc(Br)cc2)c(C)n1[O-]` the figure was inactive: -4.21%; with `Clc1cc(Cl)cc(Nc2ncnc(-n3cccc3)n2)c1`, inactive: 3.42%.
For `CC1=C(C(=O)c2ccccc2)C(c2ccc(O)cc2)NC(=S)N1` (stereo not given), the “activity, negative = inhibition” value is inactive: -1.12%.
Still for that read-out and setting: under `O=C(CCCCCCCCCCC(=O)NCc1cccnc1)NCc1cccnc1` stands inactive: -0.989%; under `Cc1cc(C)cc(NC(=O)NCC(O)COc2ccc([N+](=O)[O-])cc2)c1` (stereo not given), inactive: 3.3%.
Consider `Cc1onc(-c2c(F)cccc2Cl)c1C(=O)N=C(N)N1CC(C)OC(C)C1` (stereo not given), for which the “activity, negative = inhibition” value is inactive: -0.719%.
As for `CN(C)/C=C(/C(=O)c1ccc(Cl)c(Cl)c1)c1nnnn1-c1ccccc1`, the “activity, negative = inhibition” value was inactive: -5.14%.
As for `Nc1ccccc1C(=O)NNC1=C(C(=O)C(F)(F)F)CCC1`, the “activity, negative = inhibition” value was inactive: -4.16%.
Turning to `CCOC(=O)Cc1csc(NC(=O)Cc2ccc(Br)cc2)n1`, the “activity, negative = inhibition” value is inactive: -4.76%.
`CCCCCc1ccc(S(=O)(=O)Nc2cc(C)ccn2)cc1`: the “activity, negative = inhibition” value was inactive: 0.248%.
As to `CCOC(=O)/C(=N/Nc1ccc(OC)cc1)N1CCCc2ccccc21`, the “activity, negative = inhibition” value is inactive: -28%.
For `Cc1cc(=O)oc(C)c1C(=O)Nc1ccccc1F`, the “activity, negative = inhibition” value was inactive: -0.863%.
For the compound `CC(=O)c1ccc(N2CCc3ccccc3C2)c([N+](=O)[O-])c1`, the “activity, negative = inhibition” value is inactive: -30%.
Turning to `COc1ccc(CCNC(=S)N(C)C)cc1OC`, the “activity, negative = inhibition” value is inactive: -3.03%.
With `Cc1onc(-c2ccccc2)c1NC(=O)N(Cc1ccccc1)C(C)C`, the “activity, negative = inhibition” value was inactive: -7%.
Consider `C=COC(=O)c1sc2nc(C)cc(C)c2c1N`, for which the “activity, negative = inhibition” value was inactive: -7.98%.
The same measure, in the same setting: under `O=C(CN1CCCC1)OCCCC1CCCCC1` stands inactive: -2.64%; under `COc1ccc(C(O)Cn2cc([N+](=O)[O-])nc2C)cc1` (stereo not given), inactive: -2.61%.
On to `COC(=O)c1sccc1NC(=O)CC1C(=O)NCCN1C(=O)c1ccc(F)cc1` (stereo not given), for which the “activity, negative = inhibition” value is inactive: -3.6%.
As to `Cc1ccc(C2N=C(N)Nc3nc(=O)c4ccccc4n32)cc1` (stereo not given), the “activity, negative = inhibition” value was inactive: 3.03%.
For `O=C(Nc1ccc(F)cc1)C(=O)c1c(O)[nH]c2ccc([N+](=O)[O-])cc12`, the “activity, negative = inhibition” value is inactive: -2.22%.
Take `CC1=[N+](C)N(c2ccccc2)C(=O)C1N=C/C=C/c1ccccc1` (stereo not given): the “activity, negative = inhibition” value was inactive: 7.59%.
On the same count and under the same terms, with `O=C(c1ccccc1Cl)N1CCSCC1` the figure was inactive: 2.57%; with `CCOC(=O)c1c[nH]n2c(=O)cc(C)nc12`, inactive: -0.182%; with `Cc1csc2c(N3CCC(C(=O)O)CC3)ncnc12`, inactive: -0.429%.
As for `Nc1nc(-c2ccccc2)c(N=Nc2cccc3ccccc23)s1`, the Potency is active: 1.94 µM.
Turning to `O=C(CSc1ccc(-c2ccccn2)nn1)NCc1ccccc1`, the Potency was active: 5.62 µM.
On to `CC(=O)Cc1nnn(-c2cc(C)on2)n1`, for which the “activity, negative = inhibition” value is inactive: -6.81%.
Take `Cc1nn(-c2ccccc2)nc1C(=O)NNC(=O)c1cccc2ccccc12`: the “activity, negative = inhibition” value was inactive: -4.94%.
Still for that read-out and setting: with `Cc1c(Cl)ccc2c(C(=O)O)cc(-c3ccccc3)nc12` the figure was inactive: -3.6%.
As to `Cc1cc(C)[n+]2[nH]c(N)c(N=Nc3ccccc3)c2n1`, the “activity, negative = inhibition” value is inactive: -7.09%.
Consider `COc1ccc(/C=N/NC(=S)Nc2cc(C(F)(F)F)ccc2Cl)cc1`, for which the “activity, negative = inhibition” value was inactive: 10.6%.
As for `O=C(O)CCC(=O)N1CCN(c2ncccn2)CC1`, the “activity, negative = inhibition” value is inactive: -0.402%.
Consider `CCCNc1cc(=S)nc(N)[nH]1`, for which the “activity, negative = inhibition” value is inactive: -1.61%.
Same read-out and setting: under `OCc1ncc(-c2ccccc2)s1` stands inactive: 0.332%.
